This is one part of the list. Values were computed here from the reads of four pooled replicates and scatter widely.
molecular target: T1, Pho4 (S. cerevisiae) (UniProt P07270); experiment: relative binding free energy (BET-seq); higher = weaker binding; details: reference: library average
T1 sequence: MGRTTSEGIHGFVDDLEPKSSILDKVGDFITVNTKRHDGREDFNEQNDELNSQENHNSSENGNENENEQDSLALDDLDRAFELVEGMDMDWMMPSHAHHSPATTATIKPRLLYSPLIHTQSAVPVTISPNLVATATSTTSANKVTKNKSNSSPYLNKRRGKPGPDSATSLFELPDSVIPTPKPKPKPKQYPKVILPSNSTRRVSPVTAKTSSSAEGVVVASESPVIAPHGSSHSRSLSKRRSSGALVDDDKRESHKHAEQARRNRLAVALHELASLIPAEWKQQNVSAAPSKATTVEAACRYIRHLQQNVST

Sequence | relative binding free energy [kcal/mol]
TGTGACACGTGGCGAT | -0.19
TTTAACACGTGAGAGT | 0.32
TGGTACACGTGAAGGG | 0.21
ACGGTCACGTGGAATA | 0.42
AGGTTCACGTGGGGAT | 0.18
GGCTGCACGTGATTGT | 0.31
GTCAGCACGTGTAGAG | 0.18
TGAGTCACGTGGCTAT | 0.07
TGAGTCACGTGTTTTG | 0.08
TCTGCCACGTGTGGTT | 0.05
TATCACACGTGGGGAT | 0
TAGGGCACGTGCTAGG | -0.23
AGCTACACGTGTTGGT | 0.11
ACTAGCACGTGGGAGG | -0.21
TGACACACGTGGAGGG | -0.01
GTTAGCACGTGGTACA | 0
TTGGACACGTGTAGCG | 0.01
TATAGCACGTGGCATG | -0.16
TGGGACACGTGGGAGT | -0.07
GTGTGCACGTGGGCTG | -0.19
AGGTTCACGTGGATGG | 0.24
TCGTCCACGTGGGGGT | -0.13
GTGTACACGTGGGGCT | -0.01
TTAATCACGTGTGAGG | 0.28
CGATTCACGTGGAAGT | 0.38
GTTGGCACGTGGGCCG | -0.11

Sequence | relative binding free energy [kcal/mol]
ATTGTCACGTGACAGG | 0.26
AATAGCACGTGGGTTA | -0.31
CGAATCACGTGGTAGG | 0.07
AAGTTCACGTGGGCCT | 0.24
TGTCGCACGTGAATAG | 0.29
AACAACACGTGGGTGG | -0.16
CGTGTCACGTGGTTGG | 0.09
TCGGGCACGTGTGCGG | -0.19
TATCGCACGTGGGATA | 0.02
TTTTACACGTGTGCGG | 0.15
CGTGTCACGTGATGTG | 0.13
GTAGCCACGTGGAGTG | -0.04
TTTGTCACGTGGGAGT | 0.04
TATTTCACGTGTCCTG | 0.56
AAAGTCACGTGGAATG | 0.2
GTTGCCACGTGTGATG | 0.14
GTGAGCACGTGCGTGT | -0.01
TGCGTCACGTGTTAGG | 0.02
CGGTGCACGTGTGGGC | 0.02
GCGGGCACGTGTGCGT | -0.14
TGGGACACGTGAGAGA | 0.21
TGGCACACGTGGGTAT | -0.16
GAGAGCACGTGGGGAT | -0.11
GTCTGCACGTGGTACT | -0.02
GACGGCACGTGGGAGC | -0.03
AAGGTCACGTGGGAAG | 0.01

Sequence | relative binding free energy [kcal/mol]
TGTTCCACGTGTTGTC | 0.02
CGTGACACGTGGCGGG | -0.15
GGTCTCACGTGGTATG | 0.18
GTTTGCACGTGGGAAT | -0.01
TGGAACACGTGAGTGT | 0.3
TTAGCCACGTGAGGGG | 0.23
TACGGCACGTGTAGGT | -0.11
GAAAACACGTGTTTTT | 0.11
TTGTCCACGTGGAGGC | 0.04
TCTAGCACGTGTATGT | -0.07
AGTTCCACGTGGTTTG | -0.1
GACTGCACGTGGGTAT | -0.12
GTAAGCACGTGAGGAG | 0.25
ATAGGCACGTGTCCGG | -0.11
GGGTCCACGTGGGTTC | -0.16
CGATACACGTGGGGTC | 0.06
TGGCGCACGTGGAGGA | -0.04
TGTGACACGTGTAATG | 0.05
GGGGTCACGTGACTGG | 0.24
CAGTGCACGTGATTTG | 0.05
ACGTGCACGTGGTGTG | -0.19
CTTATCACGTGAAGGT | 0.36
TGTTGCACGTGCTCTA | -0.13
TAGGTCACGTGGTATC | 0.1
GCAATCACGTGGGGTT | -0.12
TATATCACGTGTTCTT | 0.02

Sequence | relative binding free energy [kcal/mol]
GTTGTCACGTGTGTGA | 0.25
AGGGCCACGTGTTTGG | -0.13
GATGACACGTGCTTGG | 0.13
CTATACACGTGTTTTG | -0.03
TTCATCACGTGAGCGG | 0.39
AGGAGCACGTGTGAGG | 0
ATGGACACGTGGGAGC | 0.03
ATTTGCACGTGATGTG | 0.07
CTCGGCACGTGAGGAG | 0.14
TAAAACACGTGGTTAG | -0.05
TTTTACACGTGTGTAA | 0.22
TTTTACACGTGTACTA | 0.12
AGTATCACGTGGTCAT | -0.06
ATGGACACGTGTAAGT | 0.16
TTTCGCACGTGCAGTT | 0
ATTTGCACGTGTAGGG | -0.02
GGTTGCACGTGTAACG | 0.12
ATTGTCACGTGGCAAG | 0.09
GATAGCACGTGTGGAG | 0.07
TGGCGCACGTGTGGCG | -0.12
TAACGCACGTGTGGAG | 0.08
TGTCTCACGTGTATAG | 0.22
ATGGGCACGTGGCGTG | -0.14
TATTGCACGTGGCATA | -0.24
TGTTCCACGTGATCGT | 0.14
TTAGGCACGTGTGAAA | -0.12

Sequence | relative binding free energy [kcal/mol]
TGCGGCACGTGTCGTT | -0.16
ATAGTCACGTGTATGA | 0.07
ATCTTCACGTGGCGTG | 0.11
ATCGGCACGTGACGGT | 0.11
TACAGCACGTGTGGTA | 0.04
GTCAGCACGTGGGTGC | -0.26
TGAGTCACGTGCCGGT | 0.14
GGGGACACGTGTGGGT | 0.21
TAGACCACGTGGGATG | -0.07
TTAGTCACGTGGAGGT | 0.04
TTGGTCACGTGGGGAT | 0.07
GTAAACACGTGGGGAA | 0.14
CGGTACACGTGTTGGG | 0.18
TTGTACACGTGCTCGG | 0.08
TCGTGCACGTGAGTGT | 0.15
CAGGTCACGTGAGGGC | 0.25
CGGGACACGTGTGAAG | 0.12
GTTATCACGTGGACGT | 0.14
TTGCTCACGTGGTGGC | 0.02
TAGACCACGTGTGTGG | -0.09
GTTTTCACGTGAGTGA | 0.36
TGATGCACGTGGGAAA | -0.07
TTGGTCACGTGTGGGG | 0.28
CGTAACACGTGAGGGG | 0.16
GTTTACACGTGTTTGT | 0.18
GTATACACGTGGTTGC | 0.24

Sequence | relative binding free energy [kcal/mol]
GCTTACACGTGGGTTG | -0.04
TACGTCACGTGTGGGA | 0.08
GTATACACGTGGTGCT | 0.05
GCGTGCACGTGCGAGG | -0.12
TTTGGCACGTGGCCGT | 0
AGAGACACGTGTAGTA | 0.01
GTCATCACGTGGTTCG | 0.22
GGGAACACGTGGTGAG | 0.07
GCTGGCACGTGAAGGG | 0.3
TCGAACACGTGGTGTA | -0.09
ATTCTCACGTGCTTGG | 0.17
CGCTTCACGTGGAGGG | 0.21
GGTTCCACGTGGCATT | 0.07
GGTTGCACGTGGTAAT | 0.02
GGTGTCACGTGTCGGT | 0.18
AAGATCACGTGGTAAT | 0.02
TCTGTCACGTGCTGGG | 0.02
TGGTGCACGTGTCGTC | 0.07
AGTGGCACGTGTGTTG | -0.1
GTTTACACGTGGGAGC | 0.07
TGTATCACGTGTCTAT | 0.16
TTTAACACGTGCTATG | -0.09
TGGTACACGTGTTTTT | 0.07
GTGGACACGTGGTGCT | -0.01
TGAACCACGTGTTTGG | 0.01
TATGTCACGTGTATTT | 0.09

Sequence | relative binding free energy [kcal/mol]
CTGTTCACGTGTTAAT | 0.32
TAGATCACGTGCGTGG | 0.09
CTAGACACGTGGCGGG | -0.05
GGTGTCACGTGTTTTA | 0.09
TCGGTCACGTGATGTG | 0.34
TGTTGCACGTGATCGA | 0.12
ATGATCACGTGTAAGT | 0.14
AAGTTCACGTGAGAGT | 0.49
TGAGGCACGTGTTTGG | 0.04
ACTGTCACGTGAGGAT | 0.31
ATTGTCACGTGAATAT | 0.21
GTAATCACGTGAGGGG | 0.33
AGTGTCACGTGATTCA | 0.14
TGTGCCACGTGTAGAT | 0.08
TGTAGCACGTGGGATA | -0.15
GATGTCACGTGGTCAG | 0.12
TCGGACACGTGGGGGG | -0.14
GGCGTCACGTGTTGTT | 0.22
GATATCACGTGAGTTG | 0.22
ATACTCACGTGGGTGG | 0.13
CATAGCACGTGATGGG | 0.04
AGTGTCACGTGCAAAG | 0.06
GGATTCACGTGGTGGT | 0.28
GATTTCACGTGGGGGA | 0.26
CTTGTCACGTGCTGCG | 0.14
ATAACCACGTGTGGTT | -0.01

Sequence | relative binding free energy [kcal/mol]
CTGATCACGTGGGCTT | 0.07
AGGCGCACGTGTACGT | -0.05
GTATACACGTGGGTAA | -0.11
TATATCACGTGTGGTG | 0.17
TTTCCCACGTGGTTTT | 0
GGGTACACGTGACTGA | 0.38
GGGATCACGTGGTTAA | 0.14
ACGGGCACGTGGGAGT | -0.2
TGACTCACGTGTTAAT | 0.25
GTAGCCACGTGTGTTG | -0.11
TTGCGCACGTGTTAGG | -0.05
TGTTGCACGTGAGTAG | 0.24
TTAGTCACGTGGGAGG | 0.11
TGATTCACGTGAGGCA | 0.29
GGAGTCACGTGATCAT | 0.38
TGGAACACGTGTGTTA | 0.06
TTGTGCACGTGAGTGG | 0.2
ATGAGCACGTGCGTTT | -0.17
CGGTTCACGTGAGGTT | 0.38
ATGGCCACGTGGGATG | -0.17
TGTTTCACGTGCGTCA | 0.13
TGGGTCACGTGCTGCT | 0.1
AAATGCACGTGGCTGT | -0.05
TTAAGCACGTGTATAT | -0.02
ACGGGCACGTGTGATG | -0.06
GTAGTCACGTGAAGTA | 0.34

Sequence | relative binding free energy [kcal/mol]
ACTTGCACGTGTTGGA | 0.09
AGTTTCACGTGGGTAG | 0.23
GGCTTCACGTGGGGGG | 0.07
TGAGTCACGTGGATGT | 0.28
TGTATCACGTGACGAT | 0.24
TTGTTCACGTGCTATA | 0.1
TTGTACACGTGTGCCT | 0.12
TTGTACACGTGGTGGT | 0.01
GGTCACACGTGGGTGC | -0.01
CTAGGCACGTGAGGGT | 0.05
ATTTGCACGTGCCGGT | -0.05
AGGTGCACGTGGAAAG | 0.01
TCATGCACGTGGTCGG | -0.08
GTTAGCACGTGAGAGT | 0.32
CTAGACACGTGGGTTG | -0.23
TGGGTCACGTGAAGTG | 0.25
GCAGTCACGTGTAGGT | 0.05
GGGAACACGTGAGCGT | 0.19
ATTTACACGTGCTGGT | -0.01
TTTCGCACGTGCGGAT | 0.03
AGGCGCACGTGGTGTA | -0.18
TCAGGCACGTGTGGAT | 0.09

From the BET-seq Pho4 binding data (Le et al. 2018)
